# Some of the results follow. Values were computed here from the reads of four pooled replicates and scatter widely.
# Biological target: T1, Pho4 (S. cerevisiae) (UniProt P07270)
# T1 sequence: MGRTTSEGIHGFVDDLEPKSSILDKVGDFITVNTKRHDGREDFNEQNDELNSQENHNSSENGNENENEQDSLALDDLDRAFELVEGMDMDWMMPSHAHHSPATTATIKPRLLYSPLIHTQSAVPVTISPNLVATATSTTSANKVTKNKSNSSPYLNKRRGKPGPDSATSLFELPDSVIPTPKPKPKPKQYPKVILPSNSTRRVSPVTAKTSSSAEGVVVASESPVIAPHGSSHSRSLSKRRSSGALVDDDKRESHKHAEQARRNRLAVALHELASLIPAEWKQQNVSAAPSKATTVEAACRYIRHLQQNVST
# Assay: relative binding free energy (BET-seq); higher = weaker binding
# Settings: reference: library average
row,Sequence,relative binding free energy [kcal/mol]
1,TATGTCACGTGGCTTG,0.11
2,ATAAGCACGTGGTGGC,-0.19
3,TGGTGCACGTGATATG,-0.08
4,GGCTTCACGTGGTGTT,0.23
5,ATAGGCACGTGAGTAA,0
6,TAAGTCACGTGGTTCT,0.22
7,TTGCGCACGTGGTGTT,-0.18
8,GGTGTCACGTGGTCAA,0.14
9,TAGGCCACGTGTGCGG,-0.14
10,GATGGCACGTGTGCAA,0
11,AGGGACACGTGAAGGC,0.36
12,GTTGCCACGTGTACGT,0.05
13,GGGGCCACGTGAGTAT,0.09
14,AGTTTCACGTGTGAAA,0.25
15,ATATGCACGTGTTTGC,0.03
16,TGAAACACGTGTTCGG,0
17,GCGTTCACGTGGGTAG,0.22
18,ATATGCACGTGCGATT,0.02
19,TAAATCACGTGGGCGA,0.08
20,GTAGTCACGTGATCTG,0.13
21,ATGTGCACGTGCGGCT,-0.15
22,TTGCGCACGTGTCGGG,-0.28
23,TTGCACACGTGGTAGG,-0.18

row,Sequence,relative binding free energy [kcal/mol]
1,AGGTTCACGTGCGGTG,0.3
2,GTAATCACGTGGAGGC,0.18
3,AGGCTCACGTGGGTAT,0.04
4,CAGGGCACGTGGTTGC,-0.21
5,AGCAACACGTGGTAGT,0.06
6,TCGTTCACGTGGGTGC,0.1
7,GTCTGCACGTGTAGTG,0.02
8,ATCGGCACGTGTGCGG,-0.05
9,CTTATCACGTGAGGTG,0.16
10,GGGGTCACGTGGGGTG,0.05
11,AGTTACACGTGATAGG,0.17
12,GGCAGCACGTGTTGGA,-0.08
13,CGTGGCACGTGTATGG,-0.03
14,TGTGGCACGTGACATG,-0.02
15,TTGGGCACGTGAAGAA,0.11
16,ATTAGCACGTGCGTGG,-0.18
17,TCCTTCACGTGTGTTT,0.22
18,TTAGTCACGTGGAGGG,0.09
19,AGAATCACGTGTTTTT,0.28
20,GAAGACACGTGGGATG,-0.06
21,CGGTTCACGTGAGCGG,0.38
22,TAGGACACGTGCGTGT,0.04
23,TTTATCACGTGTGTTT,0.23

row,Sequence,relative binding free energy [kcal/mol]
1,TTGTTCACGTGGCGAT,0.19
2,TTGGTCACGTGTGACT,0.08
3,CTGTTCACGTGAATGT,0.35
4,AGCGTCACGTGAGTTG,0.22
5,CAGATCACGTGGATGG,0.12
6,GGTGGCACGTGGGAAG,-0.01
7,TGGGACACGTGCTAAG,0.11
8,GGTTTCACGTGACGGG,0.36
9,ATGATCACGTGTACGG,0.12
10,CATGGCACGTGAGGTG,0.2
11,TGATGCACGTGGTCTG,-0.14
12,TTGGTCACGTGAAGGA,0.39
13,GTGAACACGTGTAGGC,0.05
14,CATGACACGTGGGCGG,-0.08
15,TGGCTCACGTGAAAGT,0.4
16,GTCAACACGTGTGTGG,-0.05
17,GGTATCACGTGGAAAT,0.28
18,GTTTGCACGTGGCGGG,-0.07
19,TTCGGCACGTGGTTGA,-0.11
20,GTAATCACGTGTTGTC,0.1
21,GCTTTCACGTGCTTTT,0.28
22,TCTGGCACGTGGTCAG,-0.15
23,GTAGGCACGTGTGGAC,-0.02

row,Sequence,relative binding free energy [kcal/mol]
1,GGTTCCACGTGCGTGT,0.03
2,AAGGACACGTGGGGTC,-0.1
3,TGGGGCACGTGGATAG,-0.14
4,TGTCACACGTGGTATA,-0.01
5,ATTAGCACGTGTAGCG,-0.1
6,CTTTTCACGTGCTAGG,0.22
7,GGTTCCACGTGGCGGG,-0.1
8,AACGGCACGTGGTGTT,-0.19
9,CGTGACACGTGAGGTA,0.17
10,TAAGGCACGTGCGCGT,-0.22
11,GGAGCCACGTGTTGAT,0.09
12,GTTTTCACGTGTAGTT,0.37
13,GCAGGCACGTGGGAAG,-0.15
14,AATAGCACGTGTGGGC,-0.07
15,TGGGGCACGTGATGGT,0.01
16,GAGGTCACGTGGTGAT,0.09
17,TTTTGCACGTGTAGGT,0.02
18,AGTGACACGTGGAATT,0.04
19,TGAGTCACGTGAGCGT,0.29
20,GGGGCCACGTGAGGCG,-0.08
21,GGGTTCACGTGTCTTA,0.36
22,AATTTCACGTGTGGCT,0.27
23,TCATTCACGTGAAGGT,0.26

row,Sequence,relative binding free energy [kcal/mol]
1,CGTAGCACGTGGTGGC,-0.18
2,AGCTTCACGTGTCGTG,0.16
3,GGGGACACGTGTTACT,0.18
4,TAGGGCACGTGGCGAA,-0.13
5,GTGGACACGTGGAAAT,0.13
6,ATAGGCACGTGTTCAT,-0.13
7,TATAGCACGTGACTGT,0.1
8,GTTCGCACGTGGTGAC,0.01
9,TTGGCCACGTGTGCTG,-0.11
10,GGGGGCACGTGATACT,0
11,GAGTACACGTGGGGGC,0.02
12,GCTAGCACGTGATTGG,0.19
13,AAGGGCACGTGTAAGA,0
14,CAGGGCACGTGTTGAG,-0.1
15,AGTGGCACGTGTTGAC,-0.11
16,CAGAGCACGTGATGTG,0.1
17,ATGAGCACGTGTGTGA,0
18,TTTTACACGTGGCGGT,0.15
19,ATATTCACGTGATAGG,0.2
20,GGTTGCACGTGGTTAC,0.03
21,TAACGCACGTGTGTGG,-0.05
22,TTAAGCACGTGGACGT,-0.04
23,AGTCTCACGTGTAATG,0.22

# Source: the BET-seq Pho4 binding data (Le et al. 2018)
